{"source": "paper PMC12136788", "binders": {"B1": {"name": "ENSG00000106799:stop:overlap|stop_codon|ENSG00000106799|stop_codon|NA|stop_codon (ssRNA)", "RNA": "GGGAGUUCUACAGUCCGACGAUCGCAAGCUGCUUGAGAGCAGCCUUGUAUUCCCAGCAUCCAUCACAGUGCCUAAUACAUGGUAGAUCCUCAGUAGAUAUUUGUUGAGUCCAUGAGUCUUCAAAAGAACUUAAUUAGGUACAUCAACAGAGGAUUGAGCAUCA"}, "B2": {"name": "chr8:43200960:43201061:+|3pUTR|ENSG00000165102|unk|FALSE|unique (ssRNA)", "RNA": "GGGAGUUCUACAGUCCGACGAUCCAAAUUCUAAGUGUUUUCUCUUUAGGUUUCCCUGGCUUUGUGAAUGGAUCAUGUGUCUCUAGGUAUAAACCUGACAUCAUCUUUCCACCCGGCUUACCUCCACCAGAUCUCCCCAGUUCUCAACAGAGGAUUGAGCAUCA"}, "B3": {"name": "chr15:89477516:89477653:-|CDS|ENSG00000140519|control|control|control (ssRNA)", "RNA": "GGGAGUUCUACAGUCCGACGAUCCCGGCUGCACAUCCAGGACACAUGUGGCAUUAACAAUCUGCAUGGCAUUCCUGGCAUCAUAGGCGGCAUCGUGGGUGCUGUGACAGCGGCCUCCGCCAGCCUUGAAGUCUAUGGAAAAGACAACAGAGGAUUGAGCAUCA"}, "B4": {"name": "chr17:79086671:79086772:+|3pUTR|ENSG00000167280|msi1|total|mutant (ssRNA)", "RNA": "GGGAGUUCUACAGUCCGACGAUCACCGGCUGCAAGAUGCUGAUGCCGAGAAUGAUGAUUUUCUUUCCUGCAGAUGAAACUAUCCGAAAGGGUCUCCGAUUGUGGCAGGCCGGCUUUGGAGCAGGCGCCGAGACAUUUCUGAGCCAACAGAGGAUUGAGCAUCA"}, "B5": {"name": "chr10:89213657:89213758:-|3pUTR|ENSG00000107798|msi1|FALSE|unique (ssRNA)", "RNA": "GGGAGUUCUACAGUCCGACGAUCUUACAAUACUGUCCGGUGGACAAAAUGACAAUUGAUAUGUUUUUCUGAUAUAAUUACUUUAGCUGCACUAACAGUACAAUGCUUGUUAAUGGUUAAUAUAGGCAGGGCGAAUACUACUUUCAACAGAGGAUUGAGCAUCA"}, "B6": {"name": "chr5:40945159:40945374:+|CDS|ENSG00000112936|unk|total|mutant (ssRNA)", "RNA": "GGGAGUUCUACAGUCCGACGAUCGAAUUUUACAACCGUACUUGGUCUUAUGUAAAACAUACGUCGACAGAACACACAUCAUCCCGUCGGAAGCGCUCCUUUUUCCGAUCUUCAUCAUCUUCUUCACGCAGUUAUACUUCACAUCAACAGAGGAUUGAGCAUCA"}, "B7": {"name": "ENSG00000159164:stop:overlap|stop_codon|ENSG00000159164|stop_codon|NA|stop_codon (ssRNA)", "RNA": "GGGAGUUCUACAGUCCGACGAUCUUGCAUCCUGGAAUGCGCUGGACGUGUUGACUGUUGAACUCUACCCCUCAGACAAGAGGUAGUUGGAAUGUGUUGGAGGCAGGGCAGUGGAUUCAGGGGAGGGGUGGGGUGAGGAAGGAGCAACAGAGGAUUGAGCAUCA"}, "B8": {"name": "chr8:58582127:58582250:+|3pUTR|ENSG00000137575|unk|total|mutant (ssRNA)", "RNA": "GGGAGUUCUACAGUCCGACGAUCUUCAUAUUACUUCCGUUCUACCGCAUACUUGCAUCUUUAACAUGCUAUCACCGUACAUUCCGAAUGAUUGCCUUUGAUUUUUUUUUUAAAUUCUGUGUGUGUGUGUGUAAAAUGCCAAUUCAACAGAGGAUUGAGCAUCA"}, "B9": {"name": "chr16:66721972:66722075:-|3pUTR|ENSG00000135720|unk|FALSE|unique (ssRNA)", "RNA": "GGGAGUUCUACAGUCCGACGAUCUUUUUAAUUCAGUUUUUUAAAAAAACAAAUGUAUUGUGGCUUCCAGUUACCAGGUUGUCUAGGUAAUGACAGUAAACUGACUGUAGAAUGAUAAUUGUGGUAUAGUGACCAAUAGAUGCCCAACAGAGGAUUGAGCAUCA"}, "B10": {"name": "chr4:138171744:138171845:-|3pUTR|ENSG00000151012|msi1|FALSE|unique (ssRNA)", "RNA": "GGGAGUUCUACAGUCCGACGAUCAGGAGUCAGUUAUUUUUAUUCAUAUAUUUUAGCAUAUUCGAACUAAUUUCUAAGAAAUUUAGUUAUAACUCUAUGUAGUUAUAGAAAGUGAAUAUGCAGUUAUUCUAUGAGUCGCACAAUCAACAGAGGAUUGAGCAUCA"}, "B11": {"name": "chr7:73736928:73737391:-|CDS|ENSG00000106077|control|control|control (ssRNA)", "RNA": "GGGAGUUCUACAGUCCGACGAUCGGUAGAGGUAGACGGGCGCUUCGUGUGGAGGGUGAACUUGGAUGCCCUGACCCAGCACCUAGACAAGAUCUUGGCUUUCCCACAGAGGCAGGAGUCCUACCUCGGGCCAACACUCUUUCUCAACAGAGGAUUGAGCAUCA"}, "B12": {"name": "chr12:39619279:39619382:-|CDS|ENSG00000173208|unk|total|mutant (ssRNA)", "RNA": "GGGAGUUCUACAGUCCGACGAUCCGAGACCAUUUGUGAAAAACCUUCGCCUGGAGUGAAUGCAGAUUUCUUCAAACAGCUACCCGAACUUCGGAAAAUUUUGUUUCCAAAACUUGUGACCACUGAAACAGGGUGGCUCUGCCUCAACAGAGGAUUGAGCAUCA"}, "B13": {"name": "chr15:44665791:44665971:-|CDS|ENSG00000229474|control|control|control (ssRNA)", "RNA": "GGGAGUUCUACAGUCCGACGAUCGAUCUGUUUGUUCUGGAAUACGUGUAUGUGGGAAGUUGAAUCAUCAGACACUAGCUACAUAGACUAUGUUUACAGGGAUCCAGAGAGUCUGAAGACAUUUCUUAUGCCUUUAUAUAUUGGCAACAGAGGAUUGAGCAUCA"}, "B14": {"name": "chr2:206755008:206755505:-|CDS|ENSG00000138400|control|control|control (ssRNA)", "RNA": "GGGAGUUCUACAGUCCGACGAUCCACUCUGGAGGACUGCCUCCGAAGCAGGGUGCCUCUCUGCAGGCUCUAUGGGUACCUGAUAGAGAAAAAUGCUCAUGAGUCUGUCAGAGUCAUCGUGGGAGGGAGAACCUUUGUAAACCUCAACAGAGGAUUGAGCAUCA"}}, "note": "The list shows a part of the results."}
{"biological_target": "T1, UNK ZnF1-6 (called full-length) (human, UniProt Q9C0B0 30-357)", "T1 sequence": "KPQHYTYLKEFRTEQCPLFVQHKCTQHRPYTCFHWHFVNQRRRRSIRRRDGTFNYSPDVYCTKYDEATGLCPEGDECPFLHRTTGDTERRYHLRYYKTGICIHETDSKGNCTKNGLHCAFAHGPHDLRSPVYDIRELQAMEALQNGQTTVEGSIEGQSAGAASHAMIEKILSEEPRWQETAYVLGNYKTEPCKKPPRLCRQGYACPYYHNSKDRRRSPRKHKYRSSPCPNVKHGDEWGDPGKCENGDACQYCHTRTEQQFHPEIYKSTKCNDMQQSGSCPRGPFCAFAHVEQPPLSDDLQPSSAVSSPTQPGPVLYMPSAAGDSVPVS", "test": "nsRBNS (natural sequence RNA bind-n-seq); RBNS binding buffer (assumed for nsRBNS): 25 mM Tris pH 7.5, 150 mM KCl, 3 mM MgCl2, 0.01% Triton X-100, 500 ug/ml BSA, 20 U/ml SUPERase-In, 4 C; UNK is unkempt and MSI1 is Musashi-1; names of the RNAs are library labels; protein concentration not given here; high values mean tight binding", "units": {"binding signal": "enrichment R"}}
{"binder": "B1", "binding signal": 1.07}
{"binder": "B2", "binding signal": 0.573}
{"binder": "B3", "binding signal": 0.419}
{"binder": "B4", "binding signal": 0.592}
{"binder": "B5", "binding signal": 0.664}
{"binder": "B6", "binding signal": 0.468}
{"binder": "B7", "binding signal": 0.426}
{"binder": "B8", "binding signal": 0.76}
{"binder": "B9", "binding signal": 1.06}
{"binder": "B10", "binding signal": 0.976}
{"binder": "B11", "binding signal": 0.812}
{"binder": "B12", "binding signal": 0.434}
{"binder": "B13", "binding signal": 0.347}
{"binder": "B14", "binding signal": 0.535}
